According to PubChem BioAssay AID1458 (National Center for Advancing Translational Sciences (NCATS), 2008):
In all, about 210,000 compounds went through this assay and about 5,900 (2.8%) were called active. Inconclusive means that the source gave no clear call. Such entries were picked first, then a sample of the others. The call rests on the fitted dose curve; in most records, active means well fitted activation curve with a large enough effect; inconclusive means small, poorly fitted or top-dose-only effect; inactive means no such curve, though single readings can be large or run the other way. Where the call is inconclusive, the potency comes from a doubtful curve fit.

assay: qHTS Assay for Enhancers of SMN2 Splice Variant Expression; details: HEK293 SMN2-luciferase splicing reporter, luminescence, 30-36 h; activity change, positive = activation: at 46.1 µM (top of the series); further: nearly all actives have a fitted effect of over 55% in size; on activity change, positive = activation: % of control where 0% means no effect
Summary of the method: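 HEK293 cells carry an SMN2 […]–luciferase reporter in which exon 7 inclusion puts luciferase in frame. Cells were plated 10-12 h before compound addition, then incubated 30-36 h at 37C. ONE-Glo luminescence was read; sodium butyrate at 4.5 mM final served as control.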
Potency means the concentration at half of the fitted maximal effect; tags describe the fitted curve by direction and shape.

| SMILES | Potency | activity change, positive = activation |
| --- | --- | --- |
| O=C(N/N=C/c1cccs1)c1c[nH]c2ccccc12 | active: 11.2 µM |  |
| Cc1nc(NS(=O)(=O)c2ccc(Br)cc2)c2c3c(sc2n1)CCC3 | inconclusive: 4.47 µM [activator, partial curve] |  |
| COC(=O)c1[nH]c2ccc(C)cc2c1NC(=O)CN1CCN(C(=O)c2ccccc2)CC1 |  | inactive: -17.6% |
| O=C(N/N=C/c1ccc(Br)cc1)c1ccc(Br)o1 | active: 11.2 µM |  |
| COc1ccc(C(=O)Nc2cc(NC(=O)c3ccco3)ccc2OC)cc1Cl |  | inactive: -3.06% |
| Nc1nc(CSc2ccccn2)nc(Nc2ccccc2)n1 | active: 11.2 µM |  |
| C=CCN(CC=C)C(=O)Cc1ccc(F)cc1 | inconclusive: 6.31 µM [activator, partial curve, poor fit] |  |
| Cc1cccc(-n2cnc3c(c2=O)c2nc4ccccc4nc2n3Cc2ccco2)c1 | inconclusive: 0.0028 µM [activator, full curve, poor fit] |  |
| O=C(COC(=O)c1cccc(S(=O)(=O)N2CCCCC2)c1)NC1CCCc2ccccc21 (stereo not given) |  | inactive: 12.8% |
| c1ccc2oc(SCc3cn4ccsc4n3)nc2c1 | inconclusive: 20 µM [activator, single point] |  |
| O=c1cc[nH]c2c(C(F)(F)F)cccc12 | inconclusive: 3.98 µM [activator, full curve, poor fit] |  |
| O=c1ccc2cc(O)c(O)cc2o1 | inconclusive: 11.2 µM [activator, partial curve] |  |
| Cn1c(=NC(=O)c2ccco2)sc2ccccc21 | active: 4.47 µM |  |
| CC(C)COc1ccc(C(=O)Nc2scc(-c3ccc(Br)cc3)c2C(=O)OC(C)C)cc1 |  | inactive: 0.508% |
| O=C(Cc1cccs1)Nc1nnc(C2CC2)s1 | inconclusive: 31.6 µM [activator, single point] |  |
| Cc1ccc(C)c(S(=O)(=O)N2CCCOC2CNC(=O)C(=O)NCCCn2ccnc2)c1 (stereo not given) | inconclusive: 0.0251 µM [activator, full curve] |  |
| CN(Cc1nc(-c2ccccn2)no1)S(=O)(=O)c1ccc(Br)cc1 |  | inactive: -19% |
| CCN(Cc1ccccc1)C(=O)CCS(=O)(=O)c1cc(Br)cc2c1N(C(=O)C1CC1)CC2 |  | inactive: 1.34% |
| Cc1ccc2c(c1)C(=NC1CCCCC1)c1cc3ccccc3nc1-2 | active: 2.82 µM |  |
| Cc1ccccc1CNC(=O)Cc1csc2ccccc12 | inconclusive: 28.2 µM [activator, single point] |  |
| Cc1cc(-c2n[nH]c(=S)n2/N=C/C(Cl)=C/c2ccccc2)n[nH]1 | inconclusive: 35.5 µM [activator, single point] |  |
| CC(=O)Nc1ccc2nc(-c3ccco3)[nH]c2c1 | inconclusive: 20 µM [activator, partial curve, poor fit] |  |
| COc1cccc(NC2=CC(c3ccc(C(C)C)cc3)N(c3cccc(OC)c3)C2=O)c1 (stereo not given) | inconclusive: 12.6 µM [activator, single point] |  |
| CCCC(=O)N/N=C1\CS(=O)(=O)N(C)c2ccsc21 |  | inactive: -13.4% |
| CCCc1ccc(-c2cc(C(=O)NCCc3ccc(S(N)(=O)=O)cc3)c3ccccc3n2)cc1 | inconclusive: 15.8 µM [activator, single point] |  |

| SMILES | Potency | activity change, positive = activation |
| --- | --- | --- |
| C=CCNC(=O)COc1ccc(Br)cc1Cl | inconclusive: 14.1 µM [activator, single point] |  |
| C=CCn1c(-c2ccco2)n[nH]c1=S | inconclusive: 0.005 µM [activator, full curve, poor fit] |  |
| O=c1[nH]ncc(N/N=C\c2cccs2)c1Cl | inconclusive: 22.4 µM [activator, partial curve, poor fit] |  |
| O=C(O)CCCCCN1C(=O)c2ccc(C(=O)O)cc2C1=O | inconclusive: 3.55 µM [activator, single point] |  |
| COc1cccc(-c2nc3n(n2)C(c2ccccc2Cl)C(C(N)=O)=C(C)N3)c1 (stereo not given) | active: 15.8 µM |  |
| CCCSc1nnc2n(-c3ccccc3OC)c(=O)c3c4c(sc3n12)CCC4 |  | inactive: 0.303% |
| Cc1nc(NC(=O)c2ccccc2)sc1-c1csc(Nc2cccc(F)c2)n1 |  | inactive: -14.3% |
| COc1ccc(S(=O)(=O)N2CCOCC2)cc1NC(=O)Cn1nnc2ccccc2c1=O |  | inactive: 8.24% |
| CCc1ccccc1NC(=O)Nc1ccc2snnc2c1 | inconclusive: 35.5 µM [activator, single point] |  |
| CCCN1C(=O)C(Cc2nc3ccccc3c(=O)n2CC)c2cc(Br)ccc21 (stereo not given) |  | inactive: 13% |
| Cc1ccsc1/C=N/NC(=O)c1ccc(Cn2cc(Br)cn2)o1 |  | inactive: -4.24% |
| Cc1cc(-c2cccs2)nc(-n2cccc2)n1 | inconclusive: 12.6 µM [activator, single point] |  |
| Cc1cc([N+](=O)[O-])ccc1NC(=O)c1cncc(Br)c1 |  | inactive: -4% |
| Cc1ccc(S(=O)(=O)/N=C(\N)Nc2nc(C)c3ccccc3n2)cc1 | inconclusive: 2.51 µM [activator, single point] |  |
| Clc1ccc(C2=Nn3c(nnc3-c3n[nH]c4c3CCC4)SC2)cc1 | inconclusive: 17.8 µM [activator, single point] |  |
| CC(C)c1[nH]nc2c1C1(CCN(Cc3ccccc3)CC1)C(C#N)=C(N)O2 | inconclusive: 6.31 µM [activator, partial curve, poor fit] |  |
| CCOC(=O)/C(C#N)=C(C)/C=C1\Sc2ccccc2N1CC | inconclusive: 14.1 µM [activator, partial curve] |  |
| CCNS(=O)(=O)c1cc(Br)ccc1OC | inconclusive: 7.94 µM [activator, partial curve, poor fit] |  |
| O=C(CCNS(=O)(=O)c1cccc2nsnc12)Nc1ccc(F)cc1 |  | inactive: -0.504% |
| CO[C@@]1(NC(=O)Cc2cccs2)C(=O)N2C(C(=O)O)=C(COC(N)=O)CSC21 (stereo not given in full) |  | inactive: 4.25% |
| Cc1cc(Nc2ccc(C)c(Cl)c2)n2nc(-c3ccccc3)nc2n1 |  | inactive: 4.42% |
| CCOC(=O)NNC(=O)c1ccc(Cl)cc1 | inconclusive: 0.0631 µM [activator, full curve, poor fit] |  |
| COc1ccc(-c2ccnc3c2c(=O)n(C)c(=O)n3C)cc1OC |  | inactive: -9.64% |
| Cc1cnc(CNc2nc(-c3ccc(C(=O)N(C)C)cc3)nc3ccccc23)cn1 | inconclusive: 11.2 µM [activator, partial curve] |  |
| Cc1ccc(/C=N/NC(=O)c2ccccn2)o1 | inconclusive: 25.1 µM [activator, single point] |  |

| SMILES | Potency | activity change, positive = activation |
| --- | --- | --- |
| CCCCNC(=O)c1nn(-c2ccc(C)cc2)c(=O)c2c1c1ccccc1n2C |  | inactive: -5.09% |
| O=c1cc(N2CCOCC2)cnn1-c1ccccc1 | inconclusive: 5.62 µM [activator, partial curve, poor fit] |  |
| O=C(/C=C/c1ccc(F)cc1)N1CCN(c2ncccn2)CC1 |  | inactive: 5.5% |
| COc1cc2nc(CN3CCC(C(O)(c4ccccc4)c4ccccc4)CC3)[nH]c(=O)c2cc1OC | inconclusive: 15.8 µM [activator, partial curve] |  |
| Cc1cccc(C)c1NC(=O)NC1CC2CCC(C1)N2Cc1cccs1 (stereo not given) | inconclusive: 0.398 µM [activator, full curve, poor fit] |  |
| CCc1ccc2[nH]c3nc(C)cc(C)c3c(=O)c2c1 | inconclusive: 15.8 µM [activator, partial curve, poor fit] |  |
| Cc1ccsc1/C=N\NC(=O)c1ccc2c(c1)OCO2 | inconclusive: 35.5 µM [activator, single point] |  |
| C=CCSc1nnc(-c2ccc(Cl)cc2Cl)o1 | inconclusive: 31.6 µM [activator, single point] |  |
| O=C(Nc1nc(-c2cccc3ccccc23)cs1)c1cnccn1 |  | inactive: 6.52% |
| CCOC(=O)C1CCN(C(=O)CN(C)S(=O)(=O)c2cc(C)ccc2OC)CC1 | inconclusive: 7.08 µM [activator, full curve] |  |
| Cc1ccnc(NC(=O)c2ccoc2C)c1 | active: 15.8 µM |  |
| CCc1c(C)nc(SCC(=O)N2C(C)CCCC2C)[nH]c1=O (stereo not given) | inconclusive: 15.8 µM [activator, single point] |  |
| CCCNC(=O)CCn1nc(-c2ccccc2)c2ccccc2c1=O |  | inactive: -2.38% |
| O=C(N/N=C/c1c[nH]c2ccccc12)c1cc(-c2ccccc2)n[nH]1 |  | inactive: 2.08% |
| CCN1C(=O)c2cccc3c(S(=O)(=O)NCc4ccco4)ccc1c23 | inconclusive: 25.1 µM [activator, single point] |  |
| Cc1ccc(NS(=O)(=O)c2ccccc2[N+](=O)[O-])cc1C | inconclusive: 2.24 µM [activator, full curve, poor fit] |  |
| CCOc1ccc(-n2ccn3c(CC(C)CC(=O)O)nnc3c2=O)cc1 (stereo not given) |  | inactive: -6.58% |
| Clc1ccc(-c2cc(COc3ccccc3)on2)cc1 | inconclusive: 15.8 µM [activator, single point] |  |
| Cc1cc(C(=O)Cn2nc(C(=O)O)c3ccccc3c2=O)c(C)n1C1CC1 |  | inactive: 6.29% |
| COc1ccc(-n2c(=O)cc(N3CCN(c4ccccc4OC)CC3)[nH]c2=O)cc1 | inconclusive: 22.4 µM [activator, partial curve, poor fit] |  |
| N#CC(c1ccc(Cl)cc1)c1ncc(C(F)(F)F)cc1Cl (stereo not given) |  | inactive: -2.56% |
| COc1cc(C2Sc3ccccc3NC3=C2C(=O)OC3)cc(OC)c1OC (stereo not given) | inconclusive: 14.1 µM [activator, partial curve] |  |
| COc1ccc(CNC(=O)C/C(C)=N/NC(=O)COc2ccc(C)cc2Br)cc1 | inconclusive: 5.62 µM [activator, single point] |  |
| CC(NC(=O)COC(=O)Cc1ccc(-c2ccccc2)cc1)c1ccccc1 (stereo not given) | inconclusive: 2.51 µM [activator, partial curve] |  |
| CCN1CCN(c2oc(/C=C/c3ccc(OC)c(OC)c3)nc2C#N)CC1 |  | inactive: 0.191% |
